Assay results taken from PubChem BioAssay AID624417 (National Center for Advancing Translational Sciences (NCATS), 2012).
Screen size: about 410,000 compounds; about 6,400 (1.6%) were called active. The shares of active, inactive and inconclusive entries below differ from those in the screen. Calls come from the whole dose curve; as a rule, active = well fitted inhibition curve with a large enough effect; inconclusive = small, poorly fitted or top-dose-only effect; inactive = no such curve, though single readings can be large or run the other way. Where the call is inconclusive, the potency comes from a doubtful curve fit.

Target: Glucagon-like peptide 1 receptor (Homo sapiens) (UniProt P43220)
Test: qHTS of GLP-1 Receptor Inverse Agonists (Inhibition Mode); note: nearly all actives have a fitted effect of over 55% in size
Settings: HEK293 GLP-1R CRE-luciferase, luminescence, 24 h, GLP-1R form is constitutively active; activity change, negative = inhibition: at 38.3 µM (top of the series) unless noted
Outline: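 Using stably transfected HEK293 (constitutively active GLP-1R, cAMP-luciferase reporter), compounds were incubated 24 hr and luciferase measured by luminescence.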
% is set by controls: 0 for no effect and ±100 for the full control effect; potency is the fitted concentration of half-maximal effect; tags give direction and shape of the fitted curve.

UniProt P43220, sequence (P43220 whole entry, looked up): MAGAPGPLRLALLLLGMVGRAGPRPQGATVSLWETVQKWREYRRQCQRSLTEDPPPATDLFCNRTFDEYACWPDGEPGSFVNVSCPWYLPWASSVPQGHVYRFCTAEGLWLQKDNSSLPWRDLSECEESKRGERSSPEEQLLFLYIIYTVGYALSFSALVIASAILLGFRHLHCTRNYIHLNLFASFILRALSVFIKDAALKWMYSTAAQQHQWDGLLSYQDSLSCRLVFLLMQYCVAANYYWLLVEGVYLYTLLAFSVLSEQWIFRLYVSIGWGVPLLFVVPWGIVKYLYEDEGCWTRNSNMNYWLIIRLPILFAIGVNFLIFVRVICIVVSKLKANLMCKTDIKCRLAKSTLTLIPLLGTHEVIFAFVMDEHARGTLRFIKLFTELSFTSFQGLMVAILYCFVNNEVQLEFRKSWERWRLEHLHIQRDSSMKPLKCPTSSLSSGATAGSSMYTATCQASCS

Potency, active:
COc1ccc(-n2cc(-c3ccccc3)c3c(N4CCOCC4)ncnc32)cc1 3.55 µM

Potency, inactive:
COc1ccccc1CNC(=O)c1ccc2c(c1)nc(C)n2-c1cccc(C)c1, Cc1ccc(CCNC(=O)c2sc3nc4n(c(=O)c3c2C)CCCC4)cc1, COc1ccc(/C=N/NC(=O)CCSc2nc3ccccc3s2)cc1OC, C[C@H]1CN([C@@H](C)CO)C(=O)c2cc(C3=CCCCC3)cnc2O[C@@H]1CN(C)C(=O)Cc1ccccc1, Cc1ccc(N2CC(NC(=O)C3CCCCC3)CC2=O)cc1 (centres undefined), COc1ccc(N2CCN(C(=O)[C@@H](NC(=O)c3ccccc3Cl)C(C)C)CC2)cc1, S=c1nc(-c2cc(Cl)ccc2Cl)[nH][nH]1, COc1ccc2nc(-n3c(O)c(C4=c5ccccc5=NC4=O)[nH]c3=S)sc2c1, COC(=O)c1ccc(CN2CCCC(CNC(=O)Cc3ccc(OC)cc3)C2)cc1 (centres undefined), O=C(Cn1c(=O)n(Cc2ccc(F)cc2)c(=O)c2sc3ccccc3c21)Nc1ccc(F)cc1F, Nc1nc(CSc2n[nH]c(-c3ccccc3)n2)nc(Nc2ccccc2)n1, O=C(CCN1Cc2ccccc2C1)c1ccc2c(c1)OCCO2, O=C(CSc1nc2ccsc2c(=O)n1-c1ccc(Br)cc1)NCc1ccc(Cl)cc1, Nn1c(CSc2ccccn2)nc2ccccc2c1=O, COc1cc2c(cc1OC)-c1cc(Nc3ccccc3)nc(=O)n1CC2, CCN1CCc2c(sc(-n3cccc3)c2C(CCC(C)C)NC(=O)NCCC(=O)OC)C1 (centres undefined), CCc1ccc(NC(=O)Cn2c(=O)n(CCC(=O)NCCc3ccc(OC)c(OC)c3)c(=O)c3ccccc32)cc1

Potency, inconclusive:
COC(=O)c1cc2sc(Cl)cc2n1CC(=O)N1CCCc2ccccc21 7.94 µM [inhibitor, partial curve, poor fit], Cc1ccc2onc(CNC(=O)N3CCN(c4cc(Cl)ccc4C)CC3)c2c1 10 µM [inhibitor, single point], C[C@H](NC(=O)c1[nH]cnc1C(=O)Nc1ccccc1F)c1ccccc1 28.2 µM [inhibitor, single point], O=C(Nc1ccc2c(c1)OCCO2)c1cc2sccc2n1Cc1ccccc1 6.31 µM [inhibitor, partial curve, poor fit], CC1(C)CC(N=Cc2c(O)n(Cc3ccc4c(c3)OCO4)c(=O)c3ccccc23)CC(C)(C)N1 3.98 µM [inhibitor, full curve, poor fit], Clc1ccc2[nH]c3c(NCCCN4CCOCC4)ncnc3c2c1 28.2 µM [inhibitor, single point], OCC[C@@H]1NCc2cc(CO)cc(-c3ccccc3)c21 28.2 µM [inhibitor, single point], CCc1ccc(C(=O)c2cn(CC(=O)Nc3ccc(F)cc3)c3ccc(F)cc3c2=O)cc1 11.2 µM [inhibitor, partial curve, poor fit], O=C(NCCCn1ccnc1)c1cn(Cc2ccc(F)cc2)nn1 10 µM [inhibitor, partial curve, poor fit], CN(CC(=O)Nc1ccc(Cl)c(C(F)(F)F)c1)C(=O)c1ccc2c(c1)NC(=O)CS2 12.6 µM [inhibitor, partial curve, poor fit], O=C(c1ccccc1)c1ccc(Cn2cc(-c3ccccc3)nn2)cc1 11.2 µM [inhibitor, single point], CCC(C(=O)Nc1ccccc1Cl)n1nc(C)c2c(C)n(-c3ccccc3)nc2c1=O (centres undefined) 28.2 µM [inhibitor, single point], COc1cccc(OC)c1C(=O)Nc1ccc2c3c(cccc13)CC2 22.4 µM [inhibitor, single point], COc1ccccc1NS(=O)(=O)c1ccc(C(=O)NCC2(N(C)C)CCCCC2)cc1 10 µM [inhibitor, partial curve, poor fit], COc1cc(N=Nc2cccc(S(N)(=O)=O)c2)c2ccccc2c1N 28.2 µM [inhibitor, single point], O=S(c1ccccc1)C(c1ccccc1)c1ccccc1 (centres undefined) 11.2 µM [inhibitor, partial curve, poor fit], c1csc(C2=Nn3c(nnc3-c3ccncc3)SC2)c1 6.31 µM [inhibitor, partial curve, poor fit], Cc1c(NS(=O)(=O)c2ccc3c(c2)OCCO3)cccc1-c1nc2cccnc2s1 11.2 µM [inhibitor, single point], COc1ccc(-c2nc(-c3cccs3)c(-c3cccs3)[nH]2)cc1O 12.6 µM [inhibitor, single point], O=C(NCc1ccccc1)C1Nc2ccc(OC(F)(F)F)cc2C2C=CCC12 (centres undefined) 11.2 µM [inhibitor, partial curve, poor fit], Cc1cc(N2CCN(C)CC2)nc2ccc(NC(=S)NCCCN3CCN(C)CC3)cc12 20 µM [inhibitor, partial curve, poor fit], CSc1ccccc1NC(=O)CCn1c(=O)sc2ccccc21 3.98 µM [inhibitor, partial curve, poor fit], O=[N+]([O-])c1cc(/C=N/N/C(=N/c2ccccn2)c2ccccn2)ccc1O 0.501 µM [inhibitor, full curve, poor fit], COc1ccccc1OCc1nc2ccccc2s1 28.2 µM [inhibitor, single point], CC1Cc2ccccc2N1C(=O)Cn1c(=O)oc2cc(S(=O)(=O)NC3CCCC3)ccc21 (centres undefined) 31.6 µM [inhibitor, single point], CC(=O)Nc1sc2c(c1-c1nc3ccccc3s1)CCN(C(C)C)C2 6.31 µM [inhibitor, partial curve, poor fit], O=C(CSc1nnc(C2COc3ccccc3O2)o1)NC1CCCCC1 (centres undefined) 28.2 µM [inhibitor, single point], COc1cccc(-c2nc(CS(=O)(=O)CC(=O)NCCc3cc(OC)ccc3OC)c(C)o2)c1 8.91 µM [inhibitor, partial curve, poor fit], Cc1cc(C(=O)CN2C(=O)c3cccc(N)c3C2=O)c(C)n1Cc1cccs1 5.01 µM [inhibitor, partial curve], O=C(CCl)Nc1cccc(Oc2ccccc2)c1 10 µM [inhibitor, partial curve, poor fit], C=CC[C@@H](CC(=O)N[C@H](CO)Cc1ccccc1)C(=O)NC[C@H](OC(=O)[C@@H](CC=C)Cc1ccc(F)cc1)c1ccccc1 7.08 µM [inhibitor, partial curve, poor fit], Cc1cccc(C)c1OCC(O)CN(Cc1ccccc1O)C1CCCCC1 (centres undefined) 7.94 µM [inhibitor, partial curve, poor fit], Cc1ccccc1Cn1c(C)nc2ccccc21 10 µM [inhibitor, partial curve, poor fit], COC(=O)C1CCN(C(=O)COC(=O)c2cc(-c3cccs3)nn2-c2ccccc2)CC1 8.91 µM [inhibitor, partial curve], CC[N+](CC)(CC)CCOc1ccc(/C=C/c2ccccc2)cc1 5.62 µM [inhibitor, partial curve], CCN(CC)CCCNC(=O)c1cc(Nc2ccc(OC)cc2OC)nc2ccccc12 28.2 µM [inhibitor, single point], Cc1ccc(C)c(N2CCN(C(c3ccccc3)c3nnc(-c4ccccc4)o3)CC2)c1 (centres undefined) 11.2 µM [inhibitor, partial curve, poor fit], Cc1cccc(N2CCN(CC(O)COCc3cccs3)CC2)c1C (centres undefined) 10 µM [inhibitor, partial curve, poor fit], CCOc1ccc(NS(=O)(=O)c2cnc(Cl)c(Cl)c2)cc1 28.2 µM [inhibitor, single point], CCOc1cc(/C=C2\C(=O)N(c3nc(-c4ccc(Br)cc4)cs3)N=C2c2ccccc2)ccc1O 28.2 µM [inhibitor, single point], CCN(CC)S(=O)(=O)c1cc(NC(=S)NC(=O)C2CCCC2)ccc1C 28.2 µM [inhibitor, single point], CCCNC(=O)c1cc(-c2ccc3c(c2)OCO3)on1 3.16 µM [inhibitor, partial curve, poor fit], O=C(c1ccsc1)N1CCCC(N2CCN(c3cccc(Cl)c3)CC2)C1 (centres undefined) 11.2 µM [inhibitor, partial curve, poor fit], CCC(C)S(=O)(=O)c1oc(-c2ccc(F)cc2)nc1S(=O)(=O)c1ccc(F)cc1 (centres undefined) 11.2 µM [inhibitor, single point], O=C1NN=C(c2ccc(Cl)cc2)CC1c1c[nH]c2ccccc12 (centres undefined) 14.1 µM [inhibitor, partial curve, poor fit]

Activity change, negative = inhibition, inconclusive:
O=C(OCC(=O)N1CCCC1=O)c1nc(Cl)c(Cl)c(Cl)c1Cl -40.6% [inhibitor]
